From PubChem BioAssay AID651820 (National Center for Advancing Translational Sciences (NCATS), 2012)
The campaign covered roughly 340,000 compounds. About 12,000 (3.5%) were called active. The inconclusive results got no clear call from the source; some entries with a clear call stand among them for comparison. Calls follow the shape of the dose curve; as a rule, active = well fitted inhibition curve with a large enough effect; inconclusive = small, poorly fitted or top-dose-only effect, or another doubt; inactive = no such curve, though single readings can be large or run the other way. Potencies of inconclusive entries are left out as doubtful fits.
% is scaled to controls: 0 for no effect and ±100 for the full control effect; potency is read from the fitted curve at half-maximal effect; tags tell the direction and shape of the fitted curve.

Assay: qHTS Assay for Inhibitors of Hepatitis C Virus (HCV)
Details: Huh7.5.1 HCVcc-Cre (HCVcc is cell-culture hepatitis C virus) infection, luciferase reporter, 44 h; activity change, negative = inhibition: at 41.8 µM (top of the series) unless noted
Procedure, shortened: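 Infectious HCV cell culture screen: compound-treated cells (1,000/well, pre-plated 4 h) are infected with HCVcc-Cre at roughly 0.5 moi and grown 44 h. Infection is quantified by luciferase signal after 15 min substrate incubation at room temperature.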
With `COc1ccc(Nc2ncnc3sc(-c4ccccc4)cc23)cc1` the Potency was active: 10 µM.
With `O=C1N/C(=N\N=C\c2cccs2)SC1Cc1cccc(Cl)c1Cl` (configuration not stated) the Potency was inconclusive [inhibitor, single point].
With `COC(=O)c1sccc1N/N=C/c1ccc(OC)c(OC)c1OC` the Potency was inconclusive [inhibitor, partial curve].
With `CCOC(=O)c1ccccc1N/C=C1\CCCCC1=O` the Potency was inconclusive [inhibitor, single point].
For `COc1ccc(-c2csc3ncn(-c4ccccc4OC)c(=O)c23)cc1OC`, the Potency was inconclusive [inhibitor, single point].
In the case of `CCN(c1ccccc1)S(=O)(=O)c1c[nH]c2ccc([N+](=O)[O-])cc12`, the Potency was inconclusive [inhibitor, single point].
For `CCOc1ccc(CC(=O)Nc2nccs2)cc1`, the “activity change, negative = inhibition” value was inactive: 19.7%.
For `CC(=O)N1c2ccc(S(=O)(=O)N3CCC(C(=O)NCc4ccc(C)cc4)CC3)cc2CC1C` (configuration not stated), the Potency was inconclusive [inhibitor, single point].
With `COc1ccccc1-n1c(SCC(=O)c2ccc(O)cc2O)nc2cc([N+](=O)[O-])ccc21` the “activity change, negative = inhibition” value was inactive: 12.6%.
For `Cc1occc1C(=O)NC(C)CCc1ccccc1` (configuration not stated), the Potency was inconclusive [inhibitor, single point].
With `COc1cc2nc(SCc3ccc(F)cc3)n(Cc3cccs3)c(=N)c2cc1OC` the Potency was inconclusive [inhibitor, single point].
For `Cc1cccc(NC(=O)C2CCCN(S(=O)(=O)c3c(C)nn(C)c3C)C2)n1` (configuration not stated), the Potency was inconclusive [inhibitor, single point].
For `CC(C)CNC(=O)c1coc(=O)c(Br)c1`, the Potency was inconclusive [inhibitor, single point].
With `CCOC(=O)C(=CNc1ccc(C)cc1C)C(=O)OCC` the Potency was inconclusive [inhibitor, partial curve].
In the case of `CCCCCC(=O)Nc1cccc(C2=NOC3(C2)C[C@@H](C(N)=O)N(C(=O)CC(c2ccccc2)c2ccccc2)C3)c1` (some centres not stated), the Potency was inconclusive [inhibitor, single point].
In the case of `COCc1nc(-c2ccc(-c3ccc(OC)cc3)nc2OC)no1`, the Potency was inconclusive [inhibitor, partial curve].
In the case of `O=c1[nH]c(NC2CCN(S(=O)(=O)c3ccccc3C(F)(F)F)CC2)nc2c1CCCC2`, the Potency was inconclusive [inhibitor, single point].
With `COc1ccc(Cc2nc(-c3cccs3)no2)cc1OC` the Potency was inconclusive [inhibitor, single point].
In the case of `Cc1nn(Cc2ccccc2)c(Cl)c1/C=N/NC(=O)c1cccnc1`, the “activity change, negative = inhibition” value was inactive: -7.64%.
With `CCC(=O)Nc1cccc(NC(=O)c2ccc(C)cc2Cl)c1` the Potency was inconclusive [inhibitor, partial curve].
In the case of `COc1cccc(-c2nc(C(=O)NCCCN3CCOCC3)cc3c2[nH]c2ccccc23)c1`, the Potency was active: 11.2 µM.
In the case of `CC1Cc2ccccc2N1C(=S)NC(=O)c1cccc(Br)c1` (configuration not stated), the Potency was inconclusive [inhibitor, single point].
In the case of `C#CC[N+](C)(C)CCCCCCCCCCCC`, the Potency was inconclusive [inhibitor, partial curve].
With `COc1ccccc1CCc1nnc(CCC(=O)N(C)Cc2cccc3cnccc23)o1` the Potency was inconclusive [inhibitor, single point].
For `CN1CCN(CCCCOc2ccccc2C=O)CC1`, the Potency was active: 10 µM.
In the case of `COc1ccc(-c2n[nH]c3c2C(c2ccc(OC)c(OC)c2)N(c2ccccc2)C3=O)cc1` (configuration not stated), the “activity change, negative = inhibition” value was inactive: 18.3%.
For `Cc1ccc(Nc2nc(CSc3nnnn3C)cs2)cc1`, the Potency was inconclusive [inhibitor, single point].
With `COc1ccc(CNC(=O)C(=O)NCC2CCCN2S(=O)(=O)c2ccccc2)cc1` (configuration not stated) the Potency was inconclusive [inhibitor, single point].
For `CCc1nnc(NC(=O)c2cc(S(=O)(=O)N(CC)CC)ccc2Cl)s1`, the Potency was inconclusive [inhibitor, single point].
For `CCCc1cc(-c2[nH]ncc2-c2ccc(C(=O)OCC)o2)c(O)cc1O`, the Potency was inconclusive [inhibitor, single point].
With `Cc1ccc(NC(=O)COC(=O)/C(=C/c2cccs2)c2cccs2)cc1S(=O)(=O)N(C)C` the Potency was inconclusive [inhibitor, partial curve].
For `CCCCn1c(=N)n(CC(O)COc2cccc(C)c2)c2ccccc21` (configuration not stated), the Potency was active: 8.91 µM.
In the case of `CCOC(=O)Nc1ccc2c(c1)N(CCCN(C)C)c1ccccc1CC2`, the Potency was inconclusive [inhibitor, partial curve].
With `COCCn1c(SCc2c(F)cccc2Cl)nc2c1c(=O)[nH]c(=O)n2C` the Potency was inconclusive [inhibitor, partial curve, poor fit].
For `C/C(=N\NC(=O)c1nnn(-c2nonc2N)c1CN1CCc2ccccc21)c1ccccc1O`, the Potency was inconclusive [inhibitor, single point].
With `COc1ccc(C2/C=C\CN(S(=O)(=O)c3cccc4cccnc34)CC(=O)N2Cc2ccc(F)cc2)cc1` (configuration not stated) the Potency was inconclusive [inhibitor, single point].
In the case of `CC1(C)Cc2c(sc3c2c(=N)n(Cc2ccco2)c(=O)n3CC(=O)Nc2ccccc2)CO1`, the Potency was inconclusive [inhibitor, single point].
In the case of `COc1ccc(C(=O)C2CCCN(Cc3sc(N4CCCC4)nc3Cl)C2)c(OC)c1` (configuration not stated), the Potency was inconclusive [inhibitor, single point].
With `CCN(CCCNC(=O)C1CCC(=O)N1Cc1ccc(C)cc1)c1cccc(C)c1` (configuration not stated) the Potency was inconclusive [inhibitor, partial curve].
For `Cc1ccc(C)c(NC(=O)CN(C)C(=O)c2cccc(S(=O)(=O)N3CCN(Cc4ccccc4)CC3)c2)c1`, the Potency was active: 5.62 µM.
For `CCOc1ccc(C(C(=O)NCC2CCCO2)N(Cc2cccc(OC)c2)C(=O)c2snc(C(N)=O)c2N)cc1` (configuration not stated), the “activity change, negative = inhibition” value was inactive: -20.5%.
In the case of `O=C(NC1CCCCC1)c1cc(S(=O)(=O)N2CCCC2)ccc1Cl`, the Potency was inconclusive [inhibitor, single point].
For `CCOC(=O)c1cn2nc(Oc3ccc(C#N)cc3)ccc2n1`, the “activity change, negative = inhibition” value was inactive: 8.7%.
With `CCCCNCCS(=O)(=O)NCc1ccccc1OC` the Potency was inconclusive [inhibitor, single point].
In the case of `Cc1ccc(S(=O)(=O)NC(CC(C)C)C(=O)Nc2nccs2)cc1` (configuration not stated), the “activity change, negative = inhibition” value was inactive: 1.62%.
For `CCc1ccc(/C=C2/C(=O)N(c3ccccc3)C(=S)N2CC(=O)OC)s1`, the Potency was inconclusive [inhibitor, single point].
For `Cc1cc(OCC(=O)NCCc2cccc(F)c2)c2c(C)cc(=O)oc2c1`, the Potency was inconclusive [inhibitor, partial curve].
In the case of `CC1CCc2nc3sc4c(c3c(N)c2C1)CCCC4` (configuration not stated), the Potency was inconclusive [inhibitor, partial curve].
For `O=C(N/N=C(/CC(=O)c1cccs1)C(F)(F)F)c1ccc(O)cc1`, the Potency was inconclusive [inhibitor, partial curve, poor fit].
With `CCCCNC(=O)c1ccc(NC(=O)C2CCCO2)cc1` (configuration not stated) the “activity change, negative = inhibition” value was inactive: 0.214%.
For `Cc1cccc(C)c1NC(=O)c1cccc2c1C(=O)N(C1CCCCC1)C2`, the Potency was inconclusive [inhibitor, single point].
In the case of `CCOC(=O)c1c(C)[nH]c(C)c1S(=O)(=O)NCC(=O)Nc1ccccn1`, the “activity change, negative = inhibition” value was inactive: 4.65%.
In the case of `O=C(Nc1cccc(S(=O)(=O)N2CCOCC2)c1)C1CCCCN1S(=O)(=O)c1ccccc1` (configuration not stated), the “activity change, negative = inhibition” value was inactive: -7.12%.
For `COc1ccc(N(CCC(=O)O)S(=O)(=O)c2ccc(C)cc2C)cc1`, the “activity change, negative = inhibition” value was inactive: 15.3%.
With `Cc1ccc(C(=O)N/C(=C\c2ccco2)C(=O)NCCN2CCOCC2)cc1` the “activity change, negative = inhibition” value was inactive: 3.33%.
For `Cc1cc2cc(C)c3nnc(SCC(=O)Nc4ccc(S(=O)(=O)N5CCCCC5C)cc4)n3c2cc1C` (configuration not stated), the Potency was inconclusive [inhibitor, partial curve].
For `Cc1cc(C=O)sc1[B-](F)(F)F`, the “activity change, negative = inhibition” value was inactive: 25.7%.
With `COc1ccccc1N1CCN(c2cc(=O)n(Cc3ccc(F)cc3)c(=O)[nH]2)CC1` the Potency was inconclusive [inhibitor, partial curve].
For `Cc1ccc(C)c(N2CCN(C(=O)C3CCCN(S(=O)(=O)c4c(C)noc4C)C3)CC2)c1` (configuration not stated), the Potency was active: 11.2 µM.
With `CC(=O)NS(=O)(=O)c1ccc(N=c2ssc3c2-c2cc(C)c(C)cc2NC3(C)C)cc1` the Potency was inconclusive [inhibitor, single point].
For `COc1ccc(C(C(=O)NC(C)(C)C)N(Cc2ccc(C)cc2)C(=O)CCC(=O)Nc2cc(C)on2)cc1` (configuration not stated), the “activity change, negative = inhibition” value was inactive: -22.1%.
With `O=c1oc2ccccc2n1CCCCCn1c(=O)oc2ccccc21` the “activity change, negative = inhibition” value was inactive: 5.24%.
With `COc1ccccc1-c1oc2ccccc2c1C#CC1(N)CCCCC1` the Potency was inconclusive [inhibitor, single point].
For `O=C1c2cc([N+](=O)[O-])cc3cc([N+](=O)[O-])cc(c23)C(=O)N1c1ccccn1`, the Potency was inconclusive [inhibitor, single point].
For `Cn1cnc([N+](=O)[O-])c1Oc1cccc2ccccc12`, the Potency was inconclusive [inhibitor, single point].
In the case of `O=C(CCl)NNc1nc(-c2ccccc2)c2cc(Cl)ccc2n1`, the Potency was inconclusive [inhibitor, partial curve, poor fit].
In the case of `CN1CCN(c2ccc(Cl)cc2NC(=O)c2ccc(=O)n(C)n2)CC1`, the Potency was inconclusive [inhibitor, single point].
